# Out of some 310,000 compounds screened, about 14,000 (4.5%) showed an effect of 50% or more. The effect is printed as a negative number. The list shows a part of the results.
# Biological target: human ether-à-go-go-related gene (hERG) potassium channel (human, UniProt Q12809)
# Assay: primary screen, population patch clamp on CHO cells stably expressing hERG
# 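Also: peak tail current of the secondary pulse compared with the same well before compound.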
# human ether-à-go-go-related gene (hERG) potassium channel, sequence (Q12809 whole entry, looked up): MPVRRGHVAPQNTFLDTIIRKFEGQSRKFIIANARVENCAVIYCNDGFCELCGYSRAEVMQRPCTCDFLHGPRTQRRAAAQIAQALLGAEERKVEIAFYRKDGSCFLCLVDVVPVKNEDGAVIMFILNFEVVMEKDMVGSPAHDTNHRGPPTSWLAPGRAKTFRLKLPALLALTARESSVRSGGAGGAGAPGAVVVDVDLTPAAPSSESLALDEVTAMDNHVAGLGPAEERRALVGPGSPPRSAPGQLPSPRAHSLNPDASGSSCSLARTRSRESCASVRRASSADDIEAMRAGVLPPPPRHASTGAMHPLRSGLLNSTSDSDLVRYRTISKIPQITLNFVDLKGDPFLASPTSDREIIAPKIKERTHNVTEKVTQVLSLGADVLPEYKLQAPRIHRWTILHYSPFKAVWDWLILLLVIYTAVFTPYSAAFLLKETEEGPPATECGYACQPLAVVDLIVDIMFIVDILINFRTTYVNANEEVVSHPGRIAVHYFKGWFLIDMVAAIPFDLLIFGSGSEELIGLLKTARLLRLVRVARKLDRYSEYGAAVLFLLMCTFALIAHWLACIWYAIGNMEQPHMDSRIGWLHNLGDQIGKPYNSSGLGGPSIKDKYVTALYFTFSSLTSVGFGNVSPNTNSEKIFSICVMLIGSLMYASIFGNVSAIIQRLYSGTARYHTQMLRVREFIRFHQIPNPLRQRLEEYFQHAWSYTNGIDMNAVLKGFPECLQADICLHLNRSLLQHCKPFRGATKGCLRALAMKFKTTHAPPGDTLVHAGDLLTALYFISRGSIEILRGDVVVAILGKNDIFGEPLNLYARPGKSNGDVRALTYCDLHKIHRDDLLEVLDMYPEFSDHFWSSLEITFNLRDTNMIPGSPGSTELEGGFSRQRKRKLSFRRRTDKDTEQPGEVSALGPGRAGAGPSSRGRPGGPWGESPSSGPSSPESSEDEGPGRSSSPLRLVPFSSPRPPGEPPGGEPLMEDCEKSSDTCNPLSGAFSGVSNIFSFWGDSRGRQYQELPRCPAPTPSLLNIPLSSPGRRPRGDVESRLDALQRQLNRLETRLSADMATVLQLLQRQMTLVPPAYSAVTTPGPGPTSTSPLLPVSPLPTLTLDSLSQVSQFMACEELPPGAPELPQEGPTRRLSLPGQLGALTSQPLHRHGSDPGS
row,Compound,"hERG current change (%, negative = inhibition) at 10uM"
1,CCc1nc(N=C(N)N)nc2ccccc12,-4.78%
2,Cc1cc(NC(=O)c2cccs2)ncc1NC(=O)C(C)(C)C,9.59%
3,CCc1ccccc1NC(=O)CN(C)C(=O)Cn1ncc(Cl)c(Cl)c1=O,0.414%
4,c1ccc(Nc2nc(N3CCCC3)nc(N3CCOCC3)n2)cc1,7.66%
5,COc1ccc(OC)c(Nc2cc(C)nc3ccccc23)c1,-57.6%
6,CCN(CC)c1ccc(/C=C/c2cccc[n+]2C)c(OC)c1.[I-],-33.2%
7,CCC(CC)c1nnc(NC(=O)C2CCCO2)s1 (stereo not drawn),1.47%
8,COc1ccc(CNC(=O)COC(=O)c2ccc(F)c(S(=O)(=O)N3CCCCC3)c2)cc1OC,-14.6%
9,C/C(=N/NC(=O)c1ccncc1)c1ccc2c(c1)OCO2,13.8%
10,COc1cccc(NC(=S)N(CCCN2CCCC2)Cc2cccn2Cc2ccc(Cl)cc2)c1,-41.2%
11,CCc1noc(C)c1C(=O)N(C)CC(=O)Nc1ccccc1C(F)(F)F,1.04%
12,CN(C(=O)c1cc([N+](=O)[O-])ccc1NCc1cccnc1)c1ccccc1,-21%
13,CC(C)CCn1c(SCC(=O)N2CC(=O)Nc3ccccc32)nc2scc(-c3cccs3)c2c1=O,-12.4%
14,O=C(c1ccc2c(c1)OCCO2)N1CCN(c2ncc(C(F)(F)F)cc2Cl)CC1,-41.3%
15,COc1ccc(C(=O)N2CCN(c3ccc(C)c(C)c3)CC2)cc1OC,-6.14%
16,CC1CCN(Cc2c(C(=O)O)nnn2-c2nonc2N)CC1,34.4%
17,CCCCC(=O)Nc1nnc(SCC(=O)Nc2ccc(OC)cc2)s1,21.8%
18,C#CCOCCOCCOCCNc1nc(N2CCN(C(=O)[C@H]([C@@H](C)CC)n3cc([C@@H](N)CO)nn3)CC2)nc(N2CCN(C(=O)[C@H](CCCCN)n3cc([C@@H](N)C(C)CC)nn3)CC2)n1.Cl (stereo partly drawn),7.3%
19,CC(=O)Nc1ccc(S(=O)(=O)NCC2CCC(C(=O)NCc3ccccc3)CC2)cc1 (stereo not drawn),-7.76%
20,Cn1c(=O)c2c(nc(OCc3ccc4c(c3)OCO4)n2Cc2ccccc2Cl)n(C)c1=O,2.56%
21,BrC(/C=C\c1ccccc1)=N/Nc1nc(N2CCOCC2)nc(N2CCOCC2)n1,-39%
22,CCN(CC)C(=O)c1ccc(C(=O)c2ccccc2)cc1,-0.232%

row,Compound,"hERG current change (%, negative = inhibition) at 10uM"
1,CN(C)/C=N/c1nc2nccc(-c3cccs3)n2n1,3.53%
2,Cc1ccc(N2CCN(S(=O)(=O)c3ccc(C)cc3)CC2)cc1,14.5%
3,CC(C)(C)OC(=O)NNC(=O)Nc1ccccc1C(F)(F)F,16.5%
4,CCCN(Cc1cc2cc(C)ccc2[nH]c1=O)C(=O)c1cccc([N+](=O)[O-])c1,-7.02%
5,CCOC(=O)C(Cc1ccccc1)NC(=O)Cn1nnc(-c2ccccc2)n1 (stereo not drawn),-35.5%
6,OCC[C@@H]1C[C@H](O)[C@@H](O)[C@@]2(OCc3ccccc32)O1,15.4%
7,Cc1[nH]c2ccccc2c1C(=O)C(C)OC(=O)c1ccccc1NCCO (stereo not drawn),15%
8,COc1ccc(/C=N/N(C)C2=NS(=O)(=O)c3ccccc32)cc1,7.81%
9,O=C(O)CSc1ncn[nH]1,-9.23%
10,CN1Cc2c(N)cccc2C(c2ccccc2)C1.O=C(O)/C=C\C(=O)O (stereo not drawn),-9.57%
11,O=C(c1ccc(Cl)cc1)[C@@H]1[C@@H]2C(=O)N(c3ccc(Cl)cc3)C(=O)[C@@H]2C2c3ccccc3C=NN21 (stereo partly drawn),14.4%
12,CCc1cccc(NS(=O)(=O)c2ccc(-n3cccn3)cc2)c1,11.5%
13,Cc1ccc(C(=O)COC(=O)c2cnccn2)cc1,5.92%
14,Cc1c(Cl)cccc1NC(=O)CSc1nnc(C)n1-c1ccccc1,-34.9%
15,CC1CN(S(=O)(=O)c2ccc(-c3nc4ccccc4s3)cc2)CC(C)O1 (stereo not drawn),15.9%
16,Cc1ccc(NC(=O)CN2CCCC2c2cccs2)cc1S(=O)(=O)N1CCCCC1 (stereo not drawn),-9.63%
17,Cc1ccc(S(=O)(=O)Nc2cc(C(C)C)c(O)cc2C)cc1,-12.8%
18,CN(C(=O)COC(=O)CCCc1c[nH]c2ccccc12)c1c(N)n(Cc2ccccc2)c(=O)[nH]c1=O,-5.36%
19,COc1ccc(-c2cc(C(=O)Nc3ccc(C)cc3)no2)cc1,4.81%
20,CC(=O)Nc1nnc(SCC(=O)N2CCN(Cc3ccccc3)CC2)s1,8.94%
21,CCOc1ccc(-c2nc(N)nc(C)c2-c2ccc(OC)c(OC)c2)c(O)c1,10.7%
22,COc1ccc(N(CC(=O)N2CCc3ccccc3C2)S(=O)(=O)c2c(C)nn(C)c2C)cc1,-24%

row,Compound,"hERG current change (%, negative = inhibition) at 10uM"
1,O=C(O)CC1(CC(=O)NCc2ccc(F)cc2)CCCCC1,19.7%
2,CCn1c(=O)cc(OCC(=O)Nc2cc(C)ccn2)c2ccccc21,-0.0401%
3,CC(=O)c1ccc(COC(=O)Cc2ccc([N+](=O)[O-])cc2)cc1,14.4%
4,Br.Fc1cc(Cl)ccc1NC1=NCCCCC1,19.5%
5,Cc1cccc(OCC(=O)Nc2cc(C)c(C)cc2O)c1,4.31%
6,CCC(=O)Nc1cccc(-c2ccc(N3CCN(C)CC3)nn2)c1,1.1%
7,O=c1[nH]c(=O)n(-c2ccccc2F)c(O)c1/C=C1\C=Nc2ccccc21,-9.28%
8,Cc1noc(C)c1C(=O)N1CCN(C(=O)c2sc3cc(Cl)ccc3c2Cl)CC1,-47.4%
9,C/C(=N\NC(=O)C(=O)N/N=C(\C)c1cccc(O)c1)c1cccc(O)c1,18.5%
10,CC(C)Oc1ccccc1C1CC(=O)Nc2cc3c(cc21)OCO3 (stereo not drawn),7.23%
11,O=C(N/N=C/c1ccncc1)c1cc([N+](=O)[O-])cc([N+](=O)[O-])c1,-11.1%
12,Cc1noc(C)c1S(=O)(=O)NCCc1ccc(S(N)(=O)=O)cc1,8.33%
13,CN(C)c1ccc(C(=O)OCC(=O)NC2CCCCC2)cc1,10.3%
14,O=C(c1cnn2c(C(F)(F)F)cc(-c3cccs3)nc12)N1CCOCC1,-5.7%
15,CCOc1cc(N2CCOCC2)c(OCC)cc1NC(=O)C1=NN(c2cccc(C)c2)C(=O)CC1,-3.8%
16,CN(C)C(=O)C(OC(=O)c1ccc2ccccc2n1)c1ccccc1 (stereo not drawn),8.58%
17,O=C(c1ccccc1[N+](=O)[O-])n1cnc2ccccc21,-14.7%
18,O=S(=O)(c1ccccc1)N1CCN=C1SCc1c(F)cccc1Cl,2.9%
19,O=S(=O)(c1ccc(Sc2nnc3ccccn23)nc1)N1CCOCC1,2.1%
20,Brc1ccc(-c2csc(-c3ccncc3)n2)cc1,15.3%
21,CCN(CC)C(=O)CSc1nc(O)c(Cc2ccccc2)c(=O)n1-c1ccccc1,11.1%
22,C=CCN1C(=O)c2ccc(C(=O)N3CCN(S(=O)(=O)c4cccc([N+](=O)[O-])c4)CC3)cc2C1=O,-30.4%

row,Compound,"hERG current change (%, negative = inhibition) at 10uM"
1,COc1cccc(CNC(=O)CN2C(=O)CCSc3ccc(S(=O)(=O)N4CCCC4)cc32)c1,-15%
2,O=c1oc2ccc3ccccc3c2c2c1SC(C(F)(F)F)C2 (stereo not drawn),6.15%
3,CCOCCCNC(=O)CSc1ccccc1,14.4%
4,CCN(CC)CCCNC(=O)c1ccccc1C,-10.6%
5,COc1cccc(C(=O)c2ncc(C(F)(F)F)cc2Cl)c1,-2.98%
6,CCOc1ccc(NC(=S)NC23CC4CC(CC(C4)C2)C3)cc1,-0.687%
7,CSc1ccccc1OCc1cc(C(=O)N2CCNC(=O)C2)no1,0.87%
8,O=C(NCc1cccnc1)c1cnc2ccccc2n1,11.9%
9,O=C(Cn1c(CN2CCCCC2)nc2ccccc2c1=O)Nc1ccccc1,-10.2%
10,Cc1ccc2[nH]cc(CCNC(=O)/C=C/c3ccco3)c2c1,-2.52%
11,CC(Cl)C(=O)Nc1ccccc1C#N (stereo not drawn),25.5%
12,CC(=O)NC(CC(=O)NCc1ccncc1)c1ccccc1 (stereo not drawn),18.6%
13,COc1ccc(OC)c(NC(=O)CS(=O)(=O)Cc2nc(-c3ccccc3C)oc2C)c1,7.66%
14,O=C(Cn1ccc2ccccc2c1=O)NCCC(=O)N1CCN(c2cccc(C(F)(F)F)c2)CC1,-26%
15,COc1ccc(C2SCCN2C(=O)c2ccc([N+](=O)[O-])cc2)cc1 (stereo not drawn),-70%
16,CN1C(=O)C2(C(C#N)=C(N)Oc3c2oc(CO)cc3=O)c2ccccc21 (stereo not drawn),13.8%
17,OCC#CC[N+]1(CC#Cc2ccccc2)CCOCC1.[Br-],-1.3%
18,COc1ccc(/C=C(/NC(=O)c2ccccc2)C(=O)Nc2cccc(C(=O)O)c2)cc1,9.05%
19,Cc1nn(CC(=O)N(C)C)c(C)c1S(=O)(=O)N1CCOCC1,6.99%
20,O=C(C1=COCCO1)N(Cc1nnc(-c2ccc(Cl)cc2)o1)C1CC1,-31.9%
21,COC(=O)c1sc(NC(=O)C2c3ccccc3Oc3ccccc32)c(C(=O)OC)c1C,-2.69%
